Measurements published in patent publication US20260297081A1, “COMPOUNDS AND METHODS OF TREATING CANCERS” (Cullgen Inc., priority 2023, published 2026).
At least one read-out could not be matched to a standard name with certainty.

test system: cyclin D1; test: HiBiT detection of HiBiT-tagged cyclin D1 protein level in MCF7 cells, 16 hours (Table 8); type: cell-based; settings: 10 nM, MCF7 cells stably expressing HiBiT tagged target proteins

| SMILES | % Cyclin D1 Relative Level (10 nM) |
| --- | --- |
| CC(=O)c1c(C)c2cnc(Nc3ccc(CN4CCN(CC(=O)N5CCC6(CCC(Nc7nc(NC(C)C)ccc7C(=O)Nc7ccc(N(C)C)nn7)C6)C5)CC4)cn3)nc2n(C2CCCC2)c1=O (stereo not drawn) [CPD-487, 2-((2-(2-(4-((6-((6-acetyl-8-cyclopentyl-5-methyl-7-oxo-7,8-dihydropyrido[2,3-d]pyrimidin-2-yl)amino)pyridin-3-yl)methyl)piperazin-1-yl)acetyl)-2-azaspiro[4.4]nonan-7-yl)amino)-N-(6-(dimethylamino)pyridazin-3-yl)-6-(isopropylamino)nicotinamide] | B (55%< Relative protein level ≤85%) |
| [2H]C([2H])([2H])Nc1ccc(C(=O)Nc2ccc(N(C)C)nn2)c(NC2CC3(C2)CN(C(=O)CN2CCN(C(C)c4ccc(Nc5ncc6c(C)c(C(C)=O)c(=O)n(C7CCCC7)c6n5)nc4)CC2)C3)n1 (stereo not drawn) [CPD-488, 2-((2-(2-(4-(1-(6-((6-acetyl-8-cyclopentyl-5-methyl-7-oxo-7,8-dihydropyrido[2,3-d]pyrimidin-2-yl)amino)pyridin-3-yl)ethyl)piperazin-1-yl)acetyl)-2-azaspiro[3.3]heptan-6-yl)amino)-N-(6-(dimethylamino)pyridazin-3-yl)-6-((methyl-d3)amino)nicotinamide] | B (55%< Relative protein level ≤85%) |
| [2H]C([2H])([2H])Nc1ccc(C(=O)Nc2ccc(N(C)C)nn2)c(NC2CC3(C2)CN(C(=O)CN2CC4(C2)CN(c2ccc(Nc5ncc6c(C)c(C(C)=O)c(=O)n(C7CCCC7)c6n5)nc2)C4)C3)n1 [CPD-489, 2-((2-(2-(6-(6-((6-acetyl-8-cyclopentyl-5-methyl-7-oxo-7,8-dihydropyrido[2,3-d]pyrimidin-2-yl)amino)pyridin-3-yl)-2,6-diazaspiro[3.3]heptan-2-yl)acetyl)-2-azaspiro[3.3]heptan-6-yl)amino)-N-(6-(dimethylamino)pyridazin-3-yl)-6-((methyl-d3)amino)nicotinamide] | C (Relative protein level >85%) |
| [2H]C([2H])([2H])Nc1ccc(C(=O)Nc2ccc(N(C)C)nn2)c(NC2CCN(C(=O)CN3CC4(C3)CN(c3ccc(Nc5ncc6c(C)c(C(C)=O)c(=O)n(C7CCCC7)c6n5)nc3)C4)CC2)n1 [CPD-490, 2-((1-(2-(6-(6-((6-acetyl-8-cyclopentyl-5-methyl-7-oxo-7,8-dihydropyrido[2,3-d]pyrimidin-2-yl)amino)pyridin-3-yl)-2,6-diazaspiro[3.3]heptan-2-yl)acetyl)piperidin-4-yl)amino)-N-(6-(dimethylamino)pyridazin-3-yl)-6-((methyl-d3)amino)nicotinamide] | C (Relative protein level >85%) |
| [2H]C([2H])([2H])Nc1ccc(C(=O)Nc2ccc(N(C)C)nn2)c(NC2CCN(CC(=O)N3CCN(Cc4ccc(Nc5ncc6c(C)c(C(C)=O)c(=O)n(C7CCCC7)c6n5)nc4)CC3)CC2)n1 [CPD-491] | B (55%< Relative protein level ≤85%) |
| CCc1ccc(C(=O)Nc2ccc(N(C)C)nn2)c(N[C@H]2CC[C@H](C(=O)N3CCC(N4CCN(c5ccc(Nc6ncc7c(C)c(C(C)=O)c(=O)n(C8CCCC8)c7n6)nc5)CC4)C3)CC2)n1 (stereo partly drawn) [CPD-492, 2-((4-(3-(4-(6-((6-acetyl-8-cyclopentyl-5-methyl-7-oxo-7,8-dihydropyrido[2,3-d]pyrimidin-2-yl)amino)pyridin-3-yl)piperazin-1-yl)pyrrolidine-1-carbonyl)cyclohexyl)amino)-N-(6-(dimethylamino)pyridazin-3-yl)-6-ethylnicotinamide] | A (Relative protein level ≤55%) |
| CC(=O)c1c(C)c2cnc(Nc3ccc(CN4CCN(CC(=O)NCC5CC(Nc6nc(NC(C)C)ccc6C(=O)Nc6ccc(N(C)C)nn6)C5)CC4)cn3)nc2n(C2CCCC2)c1=O (stereo not drawn) [CPD-493, 2-((3-((2-(4-((6-((6-acetyl-8-cyclopentyl-5-methyl-7-oxo-7,8-dihydropyrido[2,3-d]pyrimidin-2-yl)amino)pyridin-3-yl)methyl)piperazin-1-yl)acetamido)methyl)cyclobutyl)amino)-N-(6-(dimethylamino)pyridazin-3-yl)-6-(isopropylamino)nicotinamide] | B (55%< Relative protein level ≤85%) |
| [2H]C([2H])([2H])Nc1ccc(C(=O)Nc2ccc(N(C)C)nn2)c(NC2CC(NC(=O)N3CCC(N4CCN(c5ccc(Nc6ncc7c(C)c(C(C)=O)c(=O)n(C8CCCC8)c7n6)nc5)CC4)C3)C2)n1 (stereo not drawn) [CPD-494, 2-((3-(3-(4-(6-((6-acetyl-8-cyclopentyl-5-methyl-7-oxo-7,8-dihydropyrido[2,3-d]pyrimidin-2-yl)amino)pyridin-3-yl)piperazin-1-yl)pyrrolidine-1-carboxamido)cyclobutyl)amino)-N-(6-(dimethylamino)pyridazin-3-yl)-6-((methyl-d3)amino)nicotinamide] | C (Relative protein level >85%) |
| [2H]C([2H])([2H])Nc1ccc(C(=O)Nc2ccc(N(C)C)nn2)c(N[C@H]2CC[C@H](C(=O)N3CCN(Cc4ccc(Nc5ncc6c(C)c(C(C)=O)c(=O)n(C7CCCC7)c6n5)nc4)CC3)CC2)n1 [CPD-495, 2-((4-(4-((6-((6-acetyl-8-cyclopentyl-5-methyl-7-oxo-7,8-dihydropyrido[2,3-d]pyrimidin-2-yl)amino)pyridin-3-yl)methyl)piperazine-1-carbonyl)cyclohexyl)amino)-N-(6-(dimethylamino)pyridazin-3-yl)-6-((methyl-d3)amino)nicotinamide] | C (Relative protein level >85%) |
| CC(=O)c1c(C)c2cnc(Nc3ccc(N4CCC5(CCN(CC(=O)NC67CC(Nc8nc(NC(C)C)ccc8C(=O)Nc8ccc(N(C)C)nn8)(C6)C7)C5)C4)cn3)nc2n(C2CCCC2)c1=O (stereo not drawn) [CPD-496, 2-((3-(2-(7-(6-((6-acetyl-8-cyclopentyl-5-methyl-7-oxo-7,8-dihydropyrido[2,3-d]pyrimidin-2-yl)amino)pyridin-3-yl)-2,7-diazaspiro[4.4]nonan-2-yl)acetamido)bicyclo[1.1.1]pentan-1-yl)amino)-N-(6-(dimethylamino)pyridazin-3-yl)-6-(isopropylamino)nicotinamide] | B (55%< Relative protein level ≤85%) |
| CC(=O)c1c(C)c2cnc(Nc3ccc(CN4CC5(C4)CN(C(=O)CN4CC6(CC(Nc7nc(NC(C)C)ccc7C(=O)Nc7ccc(N(C)C)nn7)C6)C4)C5)cn3)nc2n(C2CCCC2)c1=O [CPD-497, 2-((2-(2-(6-((6-((6-acetyl-8-cyclopentyl-5-methyl-7-oxo-7,8-dihydropyrido[2,3-d]pyrimidin-2-yl)amino)pyridin-3-yl)methyl)-2,6-diazaspiro[3.3]heptan-2-yl)-2-oxoethyl)-2-azaspiro[3.3]heptan-6-yl)amino)-N-(6-(dimethylamino)pyridazin-3-yl)-6-(isopropylamino) nicotinamide] | C (Relative protein level >85%) |
| CC(=O)c1c(C)c2cnc(Nc3ccc(CN4CC5(C4)CN(C(=O)CN4CCC(Nc6nc(NC(C)C)ccc6C(=O)Nc6ccc(N(C)C)nn6)CC4)C5)cn3)nc2n(C2CCCC2)c1=O [CPD-498, 2-((1-(2-(6-((6-((6-acetyl-8-cyclopentyl-5-methyl-7-oxo-7,8-dihydropyrido[2,3-d]pyrimidin-2-yl)amino)pyridin-3-yl)methyl)-2,6-diazaspiro[3.3]heptan-2-yl)-2-oxoethyl)piperidin-4-yl)amino)-N-(6-(dimethylamino)pyridazin-3-yl)-6-(isopropylamino)nicotinamide] | C (Relative protein level >85%) |
| CC(=O)c1c(C)c2cnc(Nc3ccc(N4CCN(C5CCN(C(=O)[C@H]6CC[C@H](Nc7nc(C(C)C)ccc7C(=O)Nc7ccc(N(C)C)nn7)CC6)C5)CC4)cn3)nc2n(C2CCCC2)c1=O (stereo partly drawn) [CPD-499, 2-((trans-4-(3-(4-(6-((6-acetyl-8-cyclopentyl-5-methyl-7-oxo-7,8-dihydropyrido[2,3-d]pyrimidin-2-yl)amino)pyridin-3-yl)piperazin-1-yl)pyrrolidine-1-carbonyl)cyclohexyl)amino)-N-(6-(dimethylamino)pyridazin-3-yl)-6-isopropylnicotinamide] | A (Relative protein level ≤55%) |
| COc1ccc(NC(=O)c2ccc(NC(C)C)nc2N[C@H]2CC[C@H](C(=O)N3CCC(N4CCN(c5ccc(Nc6ncc7c(C)c(C(C)=O)c(=O)n(C8CCCC8)c7n6)nc5)CC4)C3)CC2)nn1 (stereo partly drawn) [CPD-500, 2-((trans-4-(3-(4-(6-((6-acetyl-8-cyclopentyl-5-methyl-7-oxo-7,8-dihydropyrido[2,3-d]pyrimidin-2-yl)amino)pyridin-3-yl)piperazin-1-yl)pyrrolidine-1-carbonyl)cyclohexyl)amino)-6-(isopropylamino)-N-(6-methoxypyridazin-3-yl)nicotinamide] | B (55%< Relative protein level ≤85%) |
| CC(=O)c1c(C)c2cnc(Nc3ccc(CN4CCN(CC(=O)NC5CCC(Nc6nc(NC(C)C)ccc6C(=O)Nc6ccc(N(C)C)nn6)C5)CC4)cn3)nc2n(C2CCCC2)c1=O (stereo not drawn) [CPD-501, 2-((3-(2-(4-((6-((6-acetyl-8-cyclopentyl-5-methyl-7-oxo-7,8-dihydropyrido[2,3-d]pyrimidin-2-yl)amino)pyridin-3-yl)methyl)piperazin-1-yl)acetamido)cyclopentyl)amino)-N-(6-(dimethylamino)pyridazin-3-yl)-6-(isopropylamino)nicotinamide] | B (55%< Relative protein level ≤85%) |
| CC(=O)c1c(C)c2cnc(Nc3ccc(CN4CCN(CC(=O)NC56CC(Nc7nc(NC(C)C)ccc7C(=O)Nc7ccc(N(C)C)nn7)(C5)C6)CC4)cn3)nc2n(C2CCCC2)c1=O [CPD-502, 2-((3-(2-(4-((6-((6-acetyl-8-cyclopentyl-5-methyl-7-oxo-7,8-dihydropyrido[2,3-d]pyrimidin-2-yl)amino)pyridin-3-yl)methyl)piperazin-1-yl)acetamido)bicyclo[1.1.1]pentan-1-yl)amino)-N-(6-(dimethylamino)pyridazin-3-yl)-6-(isopropylamino)nicotinamide] | C (Relative protein level >85%) |

same assay, conditions: 100 nM, MCF7 cells stably expressing HiBiT tagged target proteins

| SMILES | % Cyclin D1 Relative Level (100 nM) |
| --- | --- |
| CCc1ccc(C(=O)Nc2ccc(N(C)C)nn2)c(N[C@H]2CC[C@H](C(=O)N3CCC(N4CCN(c5ccc(Nc6ncc7c(C)c(C(C)=O)c(=O)n(C8CCCC8)c7n6)nc5)CC4)C3)CC2)n1 (stereo partly drawn) [CPD-492, 2-((4-(3-(4-(6-((6-acetyl-8-cyclopentyl-5-methyl-7-oxo-7,8-dihydropyrido[2,3-d]pyrimidin-2-yl)amino)pyridin-3-yl)piperazin-1-yl)pyrrolidine-1-carbonyl)cyclohexyl)amino)-N-(6-(dimethylamino)pyridazin-3-yl)-6-ethylnicotinamide] | A (Relative protein level ≤55%) |
| CC(=O)c1c(C)c2cnc(Nc3ccc(N4CCN(C5CCN(C(=O)[C@H]6CC[C@H](Nc7nc(C(C)C)ccc7C(=O)Nc7ccc(N(C)C)nn7)CC6)C5)CC4)cn3)nc2n(C2CCCC2)c1=O (stereo partly drawn) [CPD-499, 2-((trans-4-(3-(4-(6-((6-acetyl-8-cyclopentyl-5-methyl-7-oxo-7,8-dihydropyrido[2,3-d]pyrimidin-2-yl)amino)pyridin-3-yl)piperazin-1-yl)pyrrolidine-1-carbonyl)cyclohexyl)amino)-N-(6-(dimethylamino)pyridazin-3-yl)-6-isopropylnicotinamide] | A (Relative protein level ≤55%) |
